What was measured:
Full length HER2 (ErbB2) = target: T1, Full length HER2 (ErbB2) (human, UniProt P04626); assay: cell staining at 200 nM, JIMT-1 and other cell lines
T1 construct: Endogenous HER2 of human cancer cell lines (SKBR3, BT474, MDA-MB-361, JIMT-1 and others); also called cell surface Her2

[1] = target: T2, Her008P (full-length Her2 ECD with mIgG2a Fc tail) (human; murine, UniProt P04626 in part); assay: BIACORE SPR, 25 C
T2 construct: also called SIIS; SIIS (Dimer); not shown: murine IgG2a Fc tail

[2] = target: T3, Her018P (Her2 ECD with a deletion in the CR2 (Domain IV) region, mIgG2a Fc tail) (human; murine, UniProt P04626 in part); assay: BIACORE SPR, 25 C
T3 construct: also called 1.8 (Dimer); not shown: murine IgG2a Fc tail (and any junction to it)

1.6 (Dimer) = assay: BIACORE SPR, 25 C
Her155 (Monomer) = target: T4, Her155 (Monomer) (UniProt P04626 in part, limits assumed); assay: BIACORE SPR, 25 C
T4 construct: extracellular domain; also called monomeric Her2 ECD; monomeric HER2 receptor

Row | binding result (Full length HER2 (ErbB2)) | Kd [1] [nM] | Kd [2] [nM] | Kd (1.6 (Dimer)) [nM] | Kd (Her155 (Monomer)) [nM] | Binder
1 | binds |  |  |  |  | HER085 (Fc fusion) [about 100 residues not shown]GGSGSDYWGQGTMVTVSSGGGGSGGGGSGGGGSALNFMLTQPHSVSGSPGKTVTISCTRSSGYIDSKYVQWYQQRPGSAPTTVIYEDNRRPSGVPDRFSGSIDSSSNSASLTISGLETEDEADYYCQSYDDTNVVFGGGTKVTVLGDVR[human IgG1 Fc with changes not shown]
2 |  | 4.14 | 2.8 | 4.2 | 193 | HER146 (Fc fusion, SMIP; also called Her0146; Her 46) [about 100 residues not shown]SNSYYYFDYWGQGTLVTVSSGGGGSGGGGSGGGGSALSSELTQDPAVSVALGQTVRITCQGDSLRNFYPSWYQQKPGQAPVLVIYGKNIRPSGIPDRFSGSGSGSTASLTITGAQAEDEADYYCNSRDSSGKHMGVVFGGGTKLTVLGDVR[human IgG1 Fc with changes not shown]
